“And” between values parts separate entries of the source, which are not always exact repeats. Identical values can stand only once. The whole screen tested about 390,000 compounds, of which about 4,000 (1%) were called active. Inconclusive results, whose numbers are uncertain, are shown with a selection of clear calls. Calls follow the shape of the dose curve; as a rule, active = well fitted inhibition curve with a large enough effect; inconclusive = small, poorly fitted or top-dose-only effect; inactive = no such curve, though single readings can be large or run the other way. Where the call is inconclusive, the potency comes from a doubtful curve fit.
Target: Thioredoxin reductase 1, cytoplasmic (Rattus norvegicus) (UniProt O89049)
Chain of UniProt O89049 (O89049 whole entry, looked up): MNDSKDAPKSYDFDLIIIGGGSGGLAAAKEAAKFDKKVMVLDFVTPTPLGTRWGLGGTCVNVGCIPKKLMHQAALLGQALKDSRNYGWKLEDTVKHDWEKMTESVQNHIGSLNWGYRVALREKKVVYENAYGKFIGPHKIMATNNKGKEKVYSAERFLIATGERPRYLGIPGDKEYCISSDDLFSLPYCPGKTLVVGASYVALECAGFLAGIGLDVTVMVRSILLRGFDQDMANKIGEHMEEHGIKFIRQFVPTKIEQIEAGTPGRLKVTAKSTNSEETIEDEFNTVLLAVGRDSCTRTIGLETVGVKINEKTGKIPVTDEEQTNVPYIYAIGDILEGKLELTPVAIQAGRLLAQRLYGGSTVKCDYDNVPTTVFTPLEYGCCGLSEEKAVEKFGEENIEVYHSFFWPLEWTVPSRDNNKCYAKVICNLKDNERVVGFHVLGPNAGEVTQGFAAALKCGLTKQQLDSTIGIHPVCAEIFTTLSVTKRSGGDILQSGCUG
Experiment: qHTS Assay for Inhibitors of Mammalian Selenoprotein Thioredoxin Reductase 1 (TrxR1): qHTS; also: nearly all actives have a fitted effect of over 65% in size
Conditions: recombinant rTrxR1, NADPH fluorescence consumption, selenite substrate; series mostly up to 114 µM; activity change, negative = inhibition: at the top concentration
Procedure, shortened: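 Rat TrxR1 (90 nM in the dispensed reagent) was pre-reduced with 400 uM NADPH for 5 min at room temperature, then incubated with compound for 15 min. After 400 uM selenite was added, NADPH fluorescence (Ex 340/Em 450 nm) was followed for 8 min.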
% is scaled to controls: 0 for no effect and ±100 for the full control effect; potency is read from the fitted curve at half-maximal effect; tags tell the direction and shape of the fitted curve.

Compound | Potency | activity change, negative = inhibition
CCCN1C(=O)CC(c2ccco2)Sc2ccccc21 (stereo unspecified) | inconclusive: 17.8 µM [inhibitor, full curve, poor fit] | –
COc1ccccc1N(O)C1CC(=O)N(c2ccc(F)cc2)C1=O (stereo unspecified) | active: 0.891 µM | –
O=C1C=CC2(C=C1)O[C@H](Cc1ccccc1)[C@@H](Cc1ccccc1)O2 | active: 0.891 µM | –
Nc1c(C(=O)Nc2ccccc2)sc2nc3c(c(-c4ccco4)c12)CCCC3 | – | inactive: -0.458%
O=C1CC(c2ccco2)CC(O)=C1C=Nc1cc(Cl)ccc1Cl (stereo unspecified) | inconclusive: 20 µM [inhibitor, full curve] | –
CCN(CC)c1ccc(C(=O)NNC(=O)CCl)cc1 | inconclusive: 79.4 µM [inhibitor, partial curve, poor fit] | –
Cc1cccc(OCc2nnc(SCC(=O)N(C(C)C)C(C)C)n2Cc2ccco2)c1C | inconclusive: 15.8 µM [inhibitor, full curve, poor fit] | –
O=C(O)c1cc(-c2ccc3c(c2)OCO3)nc2ccc(Cl)cc12 | – | inactive: -12.8%
O=C(O)CCNc1nc(C(F)(F)F)nc2ccccc12 | – | inactive: 4.76%
Cc1cc(NC(=O)c2cc(C(C)(C)C)oc2C)no1 | inconclusive: 44.7 µM [inhibitor, partial curve] | –
C=CCN1CN(S(=O)(=O)c2cccs2)c2nc3ccccc3nc21 | – | inactive: -13.8%
CCN1CCN(C2=C(NS(=O)(=O)c3ccc(C)cc3)C(=O)c3ccccc3C2=O)CC1 | active: 79.4 µM | –
Cc1nc2ccc(NS(=O)(=O)c3ccc4c(c3)OCCO4)cc2s1 | – | inactive: 2.33%
COc1ccc(N(CC(=O)Nc2ccccc2SC)S(C)(=O)=O)cc1OC | inconclusive: 39.8 µM [inhibitor, single point] | –
CC(=O)c1c(C)oc2ccc(N(C(C)=O)S(=O)(=O)c3ccc(Cl)c([N+](=O)[O-])c3)cc12 | inconclusive: 7.94 µM [inhibitor, partial curve] | –
CCc1nnc(NC(=O)CSc2ccc(-c3ccco3)nn2)s1 | – | inactive: 14.4% [at 57.1 µM]
CCc1ccc2c(c1)C1(NN=C(c3ccc(C)cc3)S1)C(=O)N2 (stereo unspecified) | inconclusive: 50.1 µM [inhibitor, partial curve, poor fit] | –
FC(F)(F)c1cc(Nc2ccccc2)nc(-c2ccccn2)n1 | inconclusive: 89.1 µM [inhibitor, partial curve, poor fit] | –
C(=C\c1ccnc2ccccc12)/c1ccc(N2CCNCC2)cc1 | inconclusive: 89.1 µM [inhibitor, single point] | –
NC(=S)NNC(=O)COc1ccccc1O | – | inactive: 8.32%
CS(=O)(=O)N1CCN(/[N+]([O-])=N/Oc2ccc([N+](=O)[O-])cc2[N+](=O)[O-])CC1 (tested in a mixture with another compound) | active: 11.2 µM | –
CCOc1cc(/C=C2/C(=O)ON=C2C)ccc1OCc1ccc(F)cc1 | inconclusive: 3.98 µM [inhibitor, single point] | –
COc1cc(Nc2ncc3c(n2)CCN(Cc2cc(Br)cs2)C3)cc(OC)c1 | – | inactive: 1.88% [at 57.1 µM]
CCn1cc(CN(C)C(=O)CSc2nc(-c3ccco3)cc(C(F)(F)F)n2)c(C)n1 | inconclusive: 12.6 µM [inhibitor, partial curve, poor fit] | –

Compound | Potency | activity change, negative = inhibition
Cc1sc2nc(CSC(C)C(=O)Nc3ccc(C#N)cc3)[nH]c(=O)c2c1C (stereo unspecified) | inconclusive: 70.8 µM [inhibitor, partial curve] | –
CCNC(=O)C1CC(=O)OC12CCCCC2 (stereo unspecified) | inconclusive: 31.6 µM [inhibitor, single point] | –
CCn1c(=O)c(=O)[nH]c2c(=O)oc3ccc(S(=O)(=O)Nc4ccc(OC)cc4)cc3c21 | inconclusive: 28.2 µM [inhibitor, single point] | –
CCOC(=O)C1CCCN(CCC(=O)Nc2ccc(Br)cc2)C1 (stereo unspecified) | – | inactive: 12.1% [at 57.1 µM]
COc1ccccc1NC(=O)CN1CCCN(S(=O)(=O)c2ccc(Br)cc2)CC1 | – | inactive: 12.4%
Cc1cc(CNC(=O)CC2C(=O)NCCN2Cc2ccccc2C(F)(F)F)on1 (stereo unspecified) | inconclusive: 63.1 µM [inhibitor, partial curve, poor fit] | –
Cn1c(-n2cccc2)c(-c2c(-c3ccccc3)[nH]c3c2c(=O)n(C)c(=O)n3C)c(=O)n(C)c1=O | – | inactive: -4.58%
COC(=O)c1ccc(NC(=O)c2nc(S(=O)(=O)Cc3ccccc3F)ncc2Cl)cc1 | active: 8.91 µM | –
CC(C)(C)c1ccc(C(=O)Nc2ccc(C=C(C#N)C#N)cc2)cc1 | active: 3.16 µM | –
CCN1CCOC(=O)C1CC(=O)Nc1cc(C)cc(C)c1 (stereo unspecified) | active: 11.2 µM | –
CCCCCCCCCCC/C=C\C(C)(C)/C=C\CCCC(=O)O | inconclusive: 37.7 µM [inhibitor, single point] and inconclusive: 2.12 µM [inhibitor, partial curve, poor fit] | –
CCc1nnc(NS(=O)(=O)c2ccc(NC(=S)NC(=O)c3ccccc3)cc2)s1 | active: 28.2 µM | –
COc1ccc(S(=O)(=O)Cc2ccc(C(=O)NCc3ccccn3)o2)cc1 | inconclusive: 56.2 µM [inhibitor, single point] | –
O=C(NCc1ccc(F)cc1)c1cc2c(=O)n3ccccc3nc2s1 | inconclusive: 89.1 µM [inhibitor, single point] | –
CCOc1ccc(CCNC(=O)CSc2n[nH]c(N)n2)cc1OCC | inconclusive: 89.1 µM [inhibitor, single point] | –
CCc1nnc(NS(=O)(=O)c2ccc(NC(=S)NC(=O)/C=C/c3ccc(OC)cc3)cc2)s1 | inconclusive: 28.2 µM [inhibitor, partial curve] | –
Oc1ccc2ccccc2c1CNc1ccccc1 | – | inactive: -57.7% [at 57.1 µM]
COc1ccc(S(=O)(=O)Cc2ccc(C(=O)N3CCOCC3)o2)cc1 | active: 35.5 µM | –
O=C1/C(=C\c2ccccc2)CN(C(=O)CCN2CCCCC2)C/C1=C/c1ccccc1 | active: 5.01 µM | –
CCc1ccc(C(=O)NC(=S)Nc2ccc3c(c2)OCCO3)cc1 | inconclusive: 31.6 µM [inhibitor, full curve] | –
Cc1ccc(NC(=O)CN2C(=O)N/C(=C/c3cccn3-c3ccc(C(=O)O)cc3)C2=O)cc1 | inconclusive: 22.4 µM [inhibitor, full curve, poor fit] | –
COC(=O)c1ccc(NC(=S)NNC(=O)CC(C)C)cc1 | inconclusive: 10 µM [inhibitor, partial curve, poor fit] | –
CNC(=S)Nc1ccc(Nc2ccccc2)cc1 | inconclusive: 10 µM [inhibitor, partial curve, poor fit] | –
Cc1cn2c(=O)cc(COc3ccc(NC(=O)c4ccccc4C)cc3)nc2s1 | – | inactive: 23%

Compound | Potency | activity change, negative = inhibition
COCc1c(C(=O)OCC(=O)c2c(N)n(CC(C)C)c(=O)n(C)c2=O)oc2ccccc12 | – | inactive: 20.3%
C/C(=C\C(=O)c1ncc(C(F)(F)F)cc1Cl)N(C)C | inconclusive: 22.4 µM [inhibitor, single point] | –
Cc1ccc(CNC(=O)CCS(=O)(=O)c2ccc(Br)s2)o1 | active: 8.91 µM | –
Cc1ccc(NC(=O)c2ocnc2C)cc1Cl | inconclusive: 5.62 µM [inhibitor, partial curve, poor fit] | –
Cc1ccc(OCC(=O)c2cc(C)c(C)cc2C)c([N+](=O)[O-])n1 | inconclusive: 39.8 µM [inhibitor, partial curve] | –
Cc1n[nH]c(=O)c2c(NC(=O)CSc3nnnn3-c3ccc(O)cc3)oc(C)c12 | inconclusive: 25.1 µM [inhibitor, partial curve] | –
COc1ccc(C2/C=C\CNCC(=O)N2Cc2ccc(F)cc2)cc1 (stereo unspecified) | inconclusive: 35.5 µM [inhibitor, single point] | –
COc1ccc(/C=C/C(=O)Nc2sc(C)c(C)c2C(=O)O)cc1 | inconclusive: 89.1 µM [inhibitor, single point] | –
N=c1oc2ccc3ccccc3c2cc1C(N)=S | – | inactive: 59.3%
Cc1noc(C)c1C(=O)Nc1nnc(-c2ccccc2)s1 | – | inactive: -2.41%
O=S(=O)(c1ccc2nc(-c3ccco3)c(-c3ccco3)nc2c1)N1CCOCC1 | active: 3.98 µM | –
O=C(CNC(=O)c1ccccc1)Sc1ccccc1 | active: 12.6 µM | –
C=C(C1=CCN(S(=O)C(C)(C)C)[C@H]1CCO)c1ccccc1 (stereo partly specified) | inconclusive: 56.2 µM [inhibitor, partial curve, poor fit] | –
O=C(O)c1ccc(-c2noc(-c3cccc(F)c3)n2)cc1 | inconclusive: 35.5 µM [inhibitor, single point] | –
CCc1ccc(NC(=O)CN2C(=O)CCSc3ccccc32)cc1 | – | inactive: 12.2%
c1ccc(-c2cnc(CSc3ncnc4sccc34)o2)cc1 | inconclusive: 8.91 µM [inhibitor, full curve] | –
O=S(=O)(/N=C(/Sc1ccccc1)c1ccccc1)c1ccccc1 | inconclusive: 44.7 µM [inhibitor, partial curve, poor fit] | –
CC1Oc2ccccc2C=C1/C=C1/SC(N2CCOCC2)=NC1=O (stereo unspecified) | inconclusive: 12.6 µM [inhibitor, partial curve, poor fit] | –
CCc1nnc(NC(=O)c2ccc(S(=O)(=O)N(C)c3ccccc3)cc2)o1 | – | inactive: 6.65%
CCOC(=O)N1C/C(=C\c2ccccc2)C(=O)/C(=C/c2ccccc2)C1 | – | inactive: 8.43% [at 2.29 µM]
O=C1CSC(=S)N1/N=C/c1cc(Br)c(O)c(Br)c1 | active: 79.4 µM | –
COc1ccc(-c2nc(CS(=O)CC(=O)NC3CCCCC3C)c(C)o2)cc1 (stereo unspecified) | inconclusive: 56.2 µM [inhibitor, partial curve] | –
C=CCN1CCN(C(c2ccccc2)c2nnnn2CCC(C)C)CC1 (stereo unspecified) | active: 28.2 µM | –
